# Measured values reported in the antibiotic and cytotoxicity screens of Wong et al. (2023).
# The list shows a part of the results.
# System: HepG2
# Assay: cytotoxicity call (relative viability < 0.9)
# Conditions: 10 µM
row,SMILES,cytotoxicity call
1,CCCNC(=O)N[C@@H]1CC[C@H](CC(=O)N2CCN(C)CC2)O[C@@H]1CO,inactive
2,C[C@H]1CN([C@@H](C)CO)C(=O)c2cc(NC(=O)Nc3cccc4ccccc34)ccc2O[C@@H]1CN(C)C(=O)Nc1ccc(F)cc1,inactive
3,COc1ccc(CN(C)C[C@@H]2OCCCC[C@H](C)Oc3ccc(NC(=O)NC(C)C)cc3C(=O)N([C@H](C)CO)C[C@@H]2C)cc1,inactive
4,CC(C)CC#Cc1ccc2c(c1)O[C@@H](CN(C)S(=O)(=O)c1ccc(F)cc1)[C@H](C)CN([C@@H](C)CO)S2(=O)=O,inactive
5,C[C@@H]1CCCCO[C@H](CN(C)S(=O)(=O)c2cn(C)cn2)[C@H](C)CN([C@@H](C)CO)C(=O)c2cc(NS(=O)(=O)c3ccccc3)ccc2O1,inactive
6,C[C@H](CO)N1C[C@H](C)[C@H](CN(C)S(=O)(=O)c2cn(C)cn2)Oc2ncc(C#CC(C)(C)O)cc2C1=O,inactive
7,Cc1c(-c2ccnn2C)cc(C(=O)NCc2ccc(S(C)(=O)=O)cn2)c(=O)n1-c1cccc(C(F)(F)F)c1,inactive
8,CO[C@H]1CN(C)C(=O)c2cc(NS(=O)(=O)c3cn(C)cn3)ccc2OC[C@H](C)N(Cc2cccc(F)c2)C[C@H]1C,inactive

# System: S. aureus RN4220
# Assay: growth inhibition call (relative growth <= 0.2)
# Conditions: 50 µM
row,SMILES,growth inhibition call
1,O=c1ccn([C@H]2C[C@H](O)[C@@H](CO)O2)c(=O)[nH]1,inactive
2,CC1=C(C(=O)O)N2C(=O)C(NC(=O)C(N)C3=CCC=CC3)C2SC1 (configuration not stated),inactive
3,CCOc1ccc(CO[C@@H]2O[C@H](CO)[C@@H](O)[C@H](O)[C@H]2NC(C)=O)cc1OC,inactive
4,CC[C@H](C)[C@H](N)C1=N[C@H](C(=O)N[C@@H](CC(C)C)C(=O)N[C@@H]2CCC(=O)[O][Zn][O]C(=O)C[C@H]3NC(=O)[C@H](Cc4c[nH]cn4)NC(=O)[C@@H](Cc4ccccc4)NC(=O)[C@H]([C@@H](C)CC)NC(=O)[C@@H](CCCN)NC(=O)[C@H](CCCCNC(=O)[C@H](CC(N)=O)NC3=O)NC(=O)[C@H]([C@@H](C)CC)NC2=O)CS1,active
5,C[C@H](CO)N1C[C@H](C)[C@@H](CN(C)C(=O)c2ccccc2)OCCCC[C@H](C)Oc2ccc(NS(=O)(=O)c3ccc(F)cc3)cc2C1=O,inactive
6,COC1C=COC2(C)Oc3c(C)c(O)c4c(O)c(c5c(nc6cc(C)ccn65)c4c3C2=O)NC(=O)C(C)=CC=CC(C)C(O)C(C)C(O)C(C)C(OC(C)=O)C1C (configuration not stated),active
7,C[C@H](CO)N1C[C@H](C)[C@@H](CN(C)C(=O)Nc2ccc(C(F)(F)F)cc2)OCCCC[C@H](C)Oc2ccc(NC(=O)c3ccccc3)cc2C1=O,inactive
8,COc1ccc(S(=O)(=O)N(C)C[C@@H]2Oc3ncc(-c4ccncc4)cc3C(=O)N([C@@H](C)CO)C[C@H]2C)cc1,inactive
9,O=C(NO)c1ccc(C(=O)N/N=C/[C@@H](O)[C@H](O)[C@H](O)CO)cc1,inactive
10,O=P([O-])(O)C(O)(Cc1cccnc1)P(=O)(O)O.[Na+],inactive
11,O=C1C=CC(=O)N1c1ccc(O)cc1,inactive
12,Cc1ccc(S(=O)(=O)N(C)C[C@H]2Oc3c(NS(=O)(=O)c4cccs4)cccc3C(=O)N([C@@H](C)CO)C[C@H]2C)cc1,inactive
13,COCC#Cc1ccc2c(c1)O[C@H](CN(C)S(=O)(=O)c1ccc(C)cc1)[C@H](C)CN([C@H](C)CO)S2(=O)=O,inactive
14,C=CCNC(=O)[C@@H]1[C@H]2C(=O)O[C@H](c3ccccc3)[C@H](c3ccccc3)N2[C@H](c2ccc(O)cc2)[C@@]12C(=O)Nc1ccc(C#CC3=CCCCC3)cc12,inactive
15,Cc1ccc(S(=O)(=O)N(C)C[C@H]2Oc3c(NS(C)(=O)=O)cccc3C(=O)N([C@H](C)CO)C[C@@H]2C)cc1,inactive
16,COc1ccc(S(=O)(=O)N(C)C[C@H]2OCCCC[C@@H](C)Oc3ccc(NC(=O)Nc4ccccc4)cc3C(=O)N([C@H](C)CO)C[C@@H]2C)cc1,inactive
17,Cc1noc(C)c1S(=O)(=O)Nc1ccc2c(c1)CC(=O)N([C@@H](C)CO)C[C@H](C)[C@@H](CN(C)S(=O)(=O)c1ccc(F)cc1)O2,inactive
18,CN[C@@H]1[C@@H](O[C@H]2O[C@H](CO)[C@@H](N)[C@H](O)[C@H]2O)O[C@H]2C[C@@H](N)[C@H](O[C@H]3[C@H](O)[C@@H](O)[C@H](N)C[C@@H]3N)O[C@@H]2[C@@H]1O,inactive
19,COc1ccc(-c2cccc(-c3ccc([C@H]4CC(=O)C[C@@H](c5ccccc5)C45C(=O)OC(C)(C)OC5=O)cc3)c2)cc1,inactive
